Hit rate of the full screen: of about 72,000 compounds, about 1,600 (2.2%) were called active. Inconclusive means that the source gave no clear call. Such entries were picked first, then a sample of the others. Calls follow the shape of the dose curve; as a rule, active = well fitted inhibition curve with a large enough effect; inconclusive = small, poorly fitted or top-dose-only effect; inactive = flat fitted curve, though single readings scatter. No potency is given beside an inconclusive call; the fits are too rough.
These compounds were tested against Luciferin 4-monooxygenase (Photinus pyralis) (UniProt P08659) (assay: qHTS Assay for Inhibitors of Firefly Luciferase). Conditions: purified firefly luciferase, luminescence, 8 min; series mostly up to 57.1 µM.
Chain of UniProt P08659 (P08659 whole entry, looked up): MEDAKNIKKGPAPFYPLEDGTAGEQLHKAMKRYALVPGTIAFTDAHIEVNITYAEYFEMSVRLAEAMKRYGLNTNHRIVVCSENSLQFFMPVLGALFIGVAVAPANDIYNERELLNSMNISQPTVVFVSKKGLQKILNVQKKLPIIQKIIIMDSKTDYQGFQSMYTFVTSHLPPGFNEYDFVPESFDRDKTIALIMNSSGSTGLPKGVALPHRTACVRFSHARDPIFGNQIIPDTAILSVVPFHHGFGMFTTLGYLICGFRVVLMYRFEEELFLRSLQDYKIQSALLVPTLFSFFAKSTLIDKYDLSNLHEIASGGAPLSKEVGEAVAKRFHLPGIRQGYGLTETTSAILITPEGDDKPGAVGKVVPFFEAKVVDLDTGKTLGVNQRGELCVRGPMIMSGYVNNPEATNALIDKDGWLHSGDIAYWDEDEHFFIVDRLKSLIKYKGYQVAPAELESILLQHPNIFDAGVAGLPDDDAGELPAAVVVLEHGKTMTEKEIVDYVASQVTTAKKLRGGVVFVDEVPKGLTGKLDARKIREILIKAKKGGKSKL
How it was run: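 Here, luciferase activity is measured as luminescence following an 8 min room-temperature reaction at 10 uM ATP, pH 7.2. Every library sample is titrated.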
% is scaled to controls: 0 for no effect and ±100 for the full control effect; potency is read from the fitted curve at half-maximal effect; tags tell the direction and shape of the fitted curve.
Also: nearly all actives have a fitted effect of over 40% in size.

| Structure (SMILES) | Potency | activity change, negative = inhibition |
| --- | --- | --- |
| COCCn1c(C)cc(C(=O)CSc2nncn2-c2ccccc2)c1C | inconclusive [inhibitor, single point] |  |
| O=C(CNC(=O)c1ccco1)OCC(=O)c1ccc2c(c1)CCCC2 | active: 2 µM |  |
| O=C(Cc1cccs1)Nc1ccc(N2CCOCC2)cc1 | inconclusive [inhibitor, partial curve] |  |
| O=C(Nc1cccnc1)c1cc2c(ccc3ccccc32)o1 | active: 3.98 µM |  |
| Cn1cc(-c2nc3ccccc3[nH]2)c2ccccc21 | active: 12.6 µM |  |
| Cc1nc(N2CCOCC2)c2cc(-c3ccccc3)sc2n1 | inconclusive [inhibitor, partial curve] |  |
| NC(N)=NCCCC(=O)O |  | inactive: 0.147% [at 11.4 µM] |
| CCC(C)N1CC(O)=C(c2nc3ccccc3[nH]2)C1=N (configuration not stated) | inconclusive [inhibitor, single point] |  |
| COc1cc2c(C#N)c(N3CCOCC3)nc(N)c2c(N)n1 | inconclusive [inhibitor, partial curve, poor fit] |  |
| CCN(CC)C(=O)c1cc2sc3ccccc3c2s1 | inconclusive [inhibitor, partial curve] |  |
| CC(CCc1ccccc1)NC(=O)C1CCN(C(=O)c2sccc2-n2cccc2)CC1 (configuration not stated) | inactive |  |
| O=C1COc2ccc(OCc3ccc(F)cc3)cc21 | inconclusive [inhibitor, partial curve] |  |
| CC1=CCC(COC(=O)Nc2ccccc2)CC1 (configuration not stated) | inconclusive [inhibitor, single point] |  |
| O=C(OCC(=O)N1CCN(C(=O)c2ccco2)CC1)c1cc(-c2ccc(F)cc2)nc2ccccc12 | inconclusive [inhibitor, partial curve] |  |
| CCOc1ccc2nc(NCCNC(=O)C(C)C)c(C)cc2c1 | inactive |  |
| O=c1oc(-c2cccs2)nc2sc3c(c12)CCCCC3 | inconclusive [inhibitor, full curve] |  |
| N#CCCn1c(=O)c(CCc2ccccc2)nc2cnc(Nc3ccccc3)nc21 |  | inactive: -0.0549% [at 11.4 µM] |
| Cc1nnc2sc(-c3cccc(NC(=O)c4cccnc4)c3)nn12 | inconclusive [inhibitor, single point] |  |
| CCN1CCN(Cc2ccccc2NC(=O)Nc2ccc(C)cc2)CC1 | inactive |  |
| COc1cc(SC)ccc1C(=O)Nc1ccc2c(c1)OCCO2 | active: 1.26 µM |  |
| CN(C)c1ccc(NC(=O)c2ccc(COc3cccc(Cl)c3)o2)cc1 | inconclusive [inhibitor, single point] |  |
| O=C(CSc1nnc(CN2CCCCCC2=O)n1-c1ccccn1)NCC(F)(F)F | inactive |  |
| COc1ccc(Oc2ncc3nc(-c4cccc(C#N)c4)c(=O)n(CCC#N)c3n2)cc1 |  | inactive: 1.29% [at 11.4 µM] |
| Cc1noc(C)c1CSc1nnc(-c2ccccc2)n1Cc1ccco1 | inactive |  |
| O=C(Oc1cccc2cccnc12)c1ccc2c(c1)OCCO2 | inactive |  |
| CN=c1nc(-c2ccccc2)n(-c2ccccc2)s1 | inconclusive [inhibitor, single point] |  |

| Structure (SMILES) | Potency | activity change, negative = inhibition |
| --- | --- | --- |
| Cn1c(CCNC(=O)c2ccco2)nc2cc(NC(=O)c3ccco3)ccc21 | inactive |  |
| CCn1nc(NC(=O)c2ccccn2)c2cc3cc(C)ccc3nc21 | active: 7.94 µM |  |
| CC(C)Oc1ccc(-c2cc(=O)[nH]c(=O)[nH]2)cc1 | inconclusive [inhibitor, partial curve] |  |
| O=C(Nc1ccc(F)c(F)c1)c1ccc2c(c1)OCO2 | inconclusive [inhibitor, partial curve] |  |
| O=C(NC1CCCCCC1)c1ccc(N2CCCC2=O)cc1 | inconclusive [inhibitor, single point] |  |
| O=C(Nc1ccc2c(c1)nc1n2CCOC1)c1ccccc1 | inconclusive [inhibitor, single point] |  |
| CC(=O)c1ccc(C(=O)Nc2ccc(N3CCOCC3)cc2)cc1 | inactive |  |
| COc1ccc2c(c1)CCc1c(C(=O)N3CCCCCC3)noc1-2 | inconclusive [inhibitor, partial curve] |  |
| CCOc1ccc(C(=O)Nc2c(C(N)=O)oc3ccccc23)cc1 | inconclusive [inhibitor, partial curve] |  |
| COc1ccc2nc(Nc3nc(C)c(C(C)=O)s3)sc2c1 | active: 15.8 µM |  |
| Oc1ccc(C=Nc2ccc(N3CCOCC3)cc2)c(O)c1 | inconclusive [inhibitor, partial curve] |  |
| O=C1C(Cl)=C(NCCCN2CCOCC2)C(=O)N1CCc1ccccc1 | inactive |  |
| Cc1cc2ncc(-c3ccc(Cl)cc3)c(N)n2n1 | active: 12.6 µM |  |
| Cc1ccc(-c2nn(CC(=O)NCCN3CCOCC3)c(=O)c3ccccc23)cc1 | inactive |  |
| Oc1ccc(Nc2nc(-c3ccc(O)cc3)cs2)cc1 | active: 15.8 µM |  |
| COCc1ccc2oc(C(=O)O)cc2c1 | inconclusive [inhibitor, single point] |  |
| COc1ccccc1-c1nc2s/c(=C\c3cccs3)c(=O)n2n1 | inconclusive [inhibitor, partial curve] |  |
| CCOc1ccc(-c2nnc(N(CC)C(=O)C3CCC3)s2)cc1 | active: 15.8 µM |  |
| CCOC(=O)Cc1csc(NC(=O)COc2ccc(OC)cc2)n1 | inconclusive [inhibitor, partial curve] |  |
| O=C(c1cc(-c2ccc(Cl)cc2Cl)on1)N1CCOCC1 | active: 7.94 µM |  |
| O=C(O)c1cccc(COc2ccccc2Cl)c1 | active: 6.31 µM |  |
| N#Cc1cc(-c2ccccc2)oc1NC(=O)c1ccco1 | active: 25.1 µM |  |
| CCC(=O)Nc1c(OC(=O)CC)ccc2c(C)cc(=O)oc12 | inactive |  |
| CC(C)CCNC(=O)C1CCN(c2nc3ccccc3o2)CC1 | inactive |  |
| Cn1c(-c2ccc(F)cc2)cnc1SCC(=O)N1CCCCC1 | active: 15.8 µM |  |
| Cc1ccc(C(=O)c2coc3ccc(OCC(=O)O)cc23)cc1 | inconclusive [inhibitor, single point] |  |
